Results reported in PMC5700166.
This is a selection; strong and weak results do not stand in their true shares. The list includes weakly bound sequences.

Tests used:
Assay in all cases: protein-binding microarray (PBM)
Details in all cases: PBM: ~300 nM protein, 6 mM HEPES pH 7.8, 80 mM KCl, 0.5 mM EDTA, 0.5 mM EGTA, 6% glycerol, 35 ng/ul poly-dIdC, 1% milk, 1 h, room temperature; Ap Aiptasia and Nv Nematostella (sea anemones) / Co Capsaspora / Aq Amphimedon (sponge) / Dm Drosophila / Hu human; RHD is the Rel homology domain; high values mean tight binding; most listed sequences are background and not binding sites; double strand, one strand shown
GST-Ap-NF-kB RHD = biological target: T1, GST-Ap-NF-kB RHD (UniProt A0A913YAJ5)
T1 sequence: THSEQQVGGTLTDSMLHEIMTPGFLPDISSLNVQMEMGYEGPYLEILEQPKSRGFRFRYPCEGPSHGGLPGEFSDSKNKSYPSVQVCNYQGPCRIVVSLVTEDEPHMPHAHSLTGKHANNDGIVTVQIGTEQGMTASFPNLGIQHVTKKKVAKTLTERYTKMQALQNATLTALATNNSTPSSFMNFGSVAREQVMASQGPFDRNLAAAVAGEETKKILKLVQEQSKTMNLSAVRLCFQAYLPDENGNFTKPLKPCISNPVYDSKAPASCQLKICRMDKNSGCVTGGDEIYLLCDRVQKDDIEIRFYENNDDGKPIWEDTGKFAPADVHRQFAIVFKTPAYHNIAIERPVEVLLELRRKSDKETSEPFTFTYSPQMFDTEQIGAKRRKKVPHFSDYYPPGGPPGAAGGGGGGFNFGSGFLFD

[1] = biological target: T2, GST-Nv-NF-kB (Cys allele) (UniProt E5G601)
T2 sequence: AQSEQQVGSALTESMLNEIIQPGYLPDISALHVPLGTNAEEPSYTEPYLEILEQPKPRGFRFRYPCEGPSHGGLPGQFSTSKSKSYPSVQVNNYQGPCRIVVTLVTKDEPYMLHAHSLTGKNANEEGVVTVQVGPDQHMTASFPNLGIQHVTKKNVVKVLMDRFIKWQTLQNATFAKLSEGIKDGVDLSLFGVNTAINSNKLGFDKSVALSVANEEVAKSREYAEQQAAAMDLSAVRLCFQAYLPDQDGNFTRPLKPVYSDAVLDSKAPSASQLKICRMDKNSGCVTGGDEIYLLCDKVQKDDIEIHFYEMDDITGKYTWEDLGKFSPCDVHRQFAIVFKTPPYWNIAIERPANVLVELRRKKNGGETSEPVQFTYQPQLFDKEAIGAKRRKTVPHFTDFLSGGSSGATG

GST-Co-NF-kB = biological target: T3, GST-Co-NF-kB (UniProt F1ARL5)
T3 sequence: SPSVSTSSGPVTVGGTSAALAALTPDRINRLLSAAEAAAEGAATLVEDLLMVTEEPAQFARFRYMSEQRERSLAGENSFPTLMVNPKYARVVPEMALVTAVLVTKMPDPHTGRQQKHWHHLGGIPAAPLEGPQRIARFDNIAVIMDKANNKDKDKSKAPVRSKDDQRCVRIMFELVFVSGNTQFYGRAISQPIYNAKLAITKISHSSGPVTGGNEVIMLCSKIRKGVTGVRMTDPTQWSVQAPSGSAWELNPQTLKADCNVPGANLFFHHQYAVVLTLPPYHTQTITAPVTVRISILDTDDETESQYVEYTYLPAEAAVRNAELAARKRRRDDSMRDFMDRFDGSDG

GST-Dm-Relish = biological target: T4, GST-Dm-Relish (UniProt Q94527)
T4 sequence: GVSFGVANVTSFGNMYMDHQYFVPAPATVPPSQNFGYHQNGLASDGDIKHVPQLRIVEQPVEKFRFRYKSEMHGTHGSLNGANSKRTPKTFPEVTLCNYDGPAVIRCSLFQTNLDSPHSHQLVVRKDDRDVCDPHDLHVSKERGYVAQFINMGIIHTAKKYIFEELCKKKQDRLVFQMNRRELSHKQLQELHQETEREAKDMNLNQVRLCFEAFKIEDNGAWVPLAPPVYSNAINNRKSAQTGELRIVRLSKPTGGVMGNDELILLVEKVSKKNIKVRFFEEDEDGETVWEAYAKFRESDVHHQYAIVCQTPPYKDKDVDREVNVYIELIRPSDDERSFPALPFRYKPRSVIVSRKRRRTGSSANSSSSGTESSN

GST-Aq-NF-kB = biological target: T5, GST-Aq-NF-kB (UniProt A9Y5G7)
T5 sequence: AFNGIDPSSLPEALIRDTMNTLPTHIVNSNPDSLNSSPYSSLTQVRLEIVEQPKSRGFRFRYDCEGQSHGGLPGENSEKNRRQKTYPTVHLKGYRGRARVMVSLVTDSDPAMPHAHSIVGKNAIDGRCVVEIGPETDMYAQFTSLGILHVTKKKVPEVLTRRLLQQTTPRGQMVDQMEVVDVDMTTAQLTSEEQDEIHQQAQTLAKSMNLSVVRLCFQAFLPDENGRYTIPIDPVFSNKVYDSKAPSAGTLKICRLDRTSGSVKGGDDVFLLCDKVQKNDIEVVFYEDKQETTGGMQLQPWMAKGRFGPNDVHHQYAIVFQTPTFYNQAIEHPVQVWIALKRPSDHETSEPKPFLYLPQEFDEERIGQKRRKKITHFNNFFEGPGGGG

Sequence | binding signal (GST-Ap-NF-kB RHD) | binding signal [1] | binding signal (GST-Co-NF-kB) | binding signal (GST-Dm-Relish) | binding signal (GST-Aq-NF-kB)
CCGATTAACATCATAGACACGTGTGATGTTAATCGGGTCTTGATTCGCTTGACGCTGCTG | -0.209 z-score | -0.469 z-score | -0.554 z-score | 0.00576 z-score | -0.29 z-score
CCGATTAACATCAAATTTCCGTATGATGTTAATCGGGTCTTGATTCGCTTGACGCTGCTG | -0.111 z-score | 0.297 z-score | 0.774 z-score | 0.595 z-score | 0.936 z-score
CCGATTAACATCAGCCTCAAGTGTGATGTTAATCGGGTCTTGATTCGCTTGACGCTGCTG | -0.23 z-score | -0.522 z-score | 0.0566 z-score | -0.357 z-score | -0.541 z-score
CCGATTAACATCATTGCCTGGTGTGATGTTAATCGGGTCTTGATTCGCTTGACGCTGCTG | 0.448 z-score | -0.229 z-score | 0.22 z-score | 0.107 z-score | -0.238 z-score
CCGATTAACATCATCGATGCGTCTGATGTTAATCGGGTCTTGATTCGCTTGACGCTGCTG | -0.299 z-score | -0.607 z-score | -1.64 z-score | -0.607 z-score | -0.7 z-score
CCGATTAACATCATCCATACTCTTGATGTTAATCGGGTCTTGATTCGCTTGACGCTGCTG | 0.159 z-score | 0.315 z-score | 0.284 z-score | -0.337 z-score | -0.31 z-score
CCGATTAACATCATGGTGCTTAATGATGTTAATCGGGTCTTGATTCGCTTGACGCTGCTG | -0.221 z-score | 0.302 z-score | -0.886 z-score | 0.0464 z-score | -0.184 z-score
CCGATTAACATCATCTATTAGTCTGATGTTAATCGGGTCTTGATTCGCTTGACGCTGCTG | -0.532 z-score | -0.367 z-score | -0.473 z-score | -0.726 z-score | -0.337 z-score
CCGATTAACATCATGAAAGAGGCTGATGTTAATCGGGTCTTGATTCGCTTGACGCTGCTG | -0.324 z-score | -0.198 z-score | 0.0279 z-score | -0.589 z-score | -0.324 z-score
CCGATTAACATCATGCATCCGTATGATGTTAATCGGGTCTTGATTCGCTTGACGCTGCTG | 0.0371 z-score | -0.582 z-score | -0.853 z-score | -0.679 z-score | -0.307 z-score
CCGATTAACATCAGTAGCGCAATTGATGTTAATCGGGTCTTGATTCGCTTGACGCTGCTG | 0.246 z-score | -0.739 z-score | -0.718 z-score | -0.849 z-score | -0.334 z-score
CCGATTAACATCAGGAATATCCATGATGTTAATCGGGTCTTGATTCGCTTGACGCTGCTG | -0.515 z-score | -0.207 z-score | -0.802 z-score | -0.13 z-score | 0.75 z-score
CCGATTAACATCAAGATGAACCATGATGTTAATCGGGTCTTGATTCGCTTGACGCTGCTG | -0.0737 z-score | -1.32 z-score | -0.591 z-score | -0.979 z-score | -0.551 z-score
